In the supplement of paper PMC4604168 (melanoma cell lines):
The other results are listed elsewhere or left out. Many values rest on one well or one pass, so single values are uncertain.

Test system: SkMel30
Experiment: cell count relative to DMSO control; melanoma cells; higher = more viable cells
Conditions: library dose: standard library concentration; 72 h
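Also: cells treated in 1,536-well plates, then fixed and DAPI-stained, with nuclei counted from automated high-throughput microscope images.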

Structure (SMILES)	cell count [%]
CC(C)(C)c1cnc(CSc2cnc(NC(=O)C3CCNCC3)s2)o1 + NCC(=O)Nc1ccc(-n2nc(C(F)(F)F)cc2-c2ccc3c(ccc4ccccc43)c2)cc1 [OSU03012] (first compound 0.05 µM, partner dose 5 µM)	37
NC(=O)c1ccc(N(C(N)=O)c2c(F)cccc2F)nc1-c1ccc(F)cc1F + O=C(Nc1ccccc1)c1cc([N+](=O)[O-])ccc1Cl [GW9662] (first compound 2 µM, partner dose 10 µM)	81.4
CCCCCCCCc1ccc(CCC(N)(CO)CO)cc1 [fingolimod] + N#Cc1c(O)c2c(-c3ccc(-c4ccccc4O)cc3)csc2[nH]c1=O [A769662] (first compound 10 µM, partner dose 10 µM)	12.8
CCCCCCCCc1ccc(CCC(N)(CO)CO)cc1 [fingolimod] + CC(C)CCN1c2nc(Nc3cc(F)c(O)c(F)c3)ncc2N(C)C(=O)C1C [BID1870] (first compound 10 µM, partner dose 1 µM)	52.3
NC(=O)c1ccc(N(C(N)=O)c2c(F)cccc2F)nc1-c1ccc(F)cc1F + N#Cc1c(O)c2c(-c3ccc(-c4ccccc4O)cc3)csc2[nH]c1=O [A769662] (first compound 2 µM, partner dose 10 µM)	105
CCCCCCCCc1ccc(CCC(N)(CO)CO)cc1 [fingolimod] + O=C(O)c1ccc(-c2c[nH]c3ncc(-c4ccccc4)cc23)cc1C1CCCC1 [GSK650394] (first compound 10 µM, partner dose 0.8 µM)	14.2
